Source: the supplement of paper PMC4967469
Lines with a small IC50 respond at low doses; fits outside the tested doses are given as limits. AUC sums up the same curve from the lowest dose to the 256-fold higher top dose; the more sensitive the line, the further below 1. For some of these results: Any top dose called inferred comes from the curve model; the source does not state it. For some of these results: Where an entry number is given, a second screen of the drug exists; the two often differ.

How the values were obtained:
Test in all cases: Viability of human cancer cell lines after 72 h of drug (GDSC screen)
CUDC-101 = compound: C#Cc1cccc(Nc2ncnc3cc(OC)c(OCCCCCCC(=O)NO)cc23)c1 [CUDC-101]; conditions: top dose 5.12 µM; top dose inferred
Procedure: (§1)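 Human cancer cell lines in 384-well plates, medium with 10% serum, drug for 72 h over a 256-fold dose range (nine 2-fold or five 4-fold steps up to the top dose). Adherent lines were fixed and stained with the nucleic acid dye Syto60, suspension lines read with resazurin; signal relative to control wells, capped at 0 and 100%. One two-parameter sigmoid per drug and line, fitted in a mixed model over all curves with the slope shared within a line.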

AC220 = compound: CC(C)(C)c1cc(NC(=O)Nc2ccc(-c3cn4c(n3)sc3cc(OCCN5CCOCC5)ccc34)cc2)no1 [AC220]; conditions: top dose 1.024 µM; top dose inferred
Procedure: as §1

RDEA119 = compound: COc1cc(F)c(F)c(Nc2ccc(I)cc2F)c1NS(=O)(=O)C1(C[C@H](O)CO)CC1 [RDEA119]; conditions: top dose 5 µM, top dose inferred
Procedure: as §1

JNK-9L = compound: Fc1cc(-c2ccnc(Nc3ccc(-n4cnc(N5CCOCC5)n4)cc3)n2)cc(N2CCOCC2)c1 [JNK-9L]; conditions: top dose 5.12 µM; top dose inferred
Procedure: as §1

OSU-03012 = compound: NCC(=O)Nc1ccc(-n2nc(C(F)(F)F)cc2-c2ccc3c(ccc4ccccc43)c2)cc1 [OSU-03012]; conditions: top dose 16 µM; top dose inferred
Procedure: as §1

QS11 = compound: OC[C@H](Cc1ccccc1)Nc1nc(Oc2ccc3c(c2)CCC3)nc2c1ncn2Cc1ccc(-c2ccccc2)cc1 [QS11]; conditions: top dose 10.24 µM
Procedure: as §1

Cell Line	AUC (CUDC-101)	IC50 (CUDC-101)	AUC (AC220)	IC50 (AC220)	AUC (RDEA119; screen: GDSC drug entry 1014)	IC50 (RDEA119; screen: GDSC drug entry 1014)	AUC (JNK-9L)	IC50 (JNK-9L)	AUC (OSU-03012)	IC50 (OSU-03012)	AUC (QS11)	IC50 (QS11)	AUC (RDEA119; screen: GDSC drug entry 1526)	IC50 (RDEA119; screen: GDSC drug entry 1526)
201T (lung adenocarcinoma, adherent)	0.789	2930 nM	0.924	> 1020 nM	0.869	> 5000 nM	0.522	372 nM	0.568	1610 nM	0.815	7540 nM	–	–
786-0 (kidney, adherent)	0.526	375 nM	0.987	> 1020 nM	0.784	1940 nM	0.494	309 nM	0.402	551 nM	0.607	1230 nM	0.821	2600 nM
A427 (non-small cell lung carcinoma, adherent)	0.807	2660 nM	0.982	> 1020 nM	0.843	3600 nM	0.584	543 nM	0.556	1430 nM	0.931	> 10200 nM	0.875	5000 nM
A431 (skin, adherent)	0.388	160 nM	0.98	> 1020 nM	0.782	2000 nM	0.464	256 nM	0.609	1970 nM	0.754	–	0.933	> 5000 nM
A498 (kidney, adherent)	0.953	> 5120 nM	0.978	> 1020 nM	0.861	> 5000 nM	0.462	239 nM	0.961	> 16000 nM	0.977	> 10200 nM	0.779	3190 nM
A704 (kidney, adherent)	–	–	0.989	> 1020 nM	0.877	4770 nM	0.572	500 nM	0.759	5420 nM	0.988	> 10200 nM	0.869	4350 nM
A2780 (ovary, semi-adherent)	0.517	357 nM	0.962	> 1020 nM	0.932	> 5000 nM	0.569	496 nM	0.683	3310 nM	0.864	9520 nM	0.888	> 5000 nM
ACHN (kidney, adherent)	0.711	1390 nM	0.982	> 1020 nM	–	–	0.501	323 nM	0.672	3240 nM	0.887	> 10200 nM	0.758	1960 nM
BB30-HNC (head and neck, adherent)	0.521	364 nM	0.984	> 1020 nM	0.604	598 nM	0.31	95 nM	0.59	1760 nM	0.75	3280 nM	–	–
BT-20 (breast, adherent)	0.694	1290 nM	0.971	> 1020 nM	0.894	> 5000 nM	0.596	627 nM	0.862	> 16000 nM	0.982	> 10200 nM	0.951	> 5000 nM
BT-474 (breast, adherent)	0.744	1760 nM	0.974	> 1020 nM	0.928	> 5000 nM	0.675	1050 nM	0.703	4010 nM	0.969	> 10200 nM	0.979	> 5000 nM
BxPC-3 (pancreas, adherent)	0.564	490 nM	0.983	> 1020 nM	0.745	1730 nM	0.512	347 nM	0.7	3940 nM	0.915	> 10200 nM	0.756	1900 nM
C32 (melanoma, adherent)	0.949	> 5120 nM	0.987	> 1020 nM	0.329	101 nM	0.794	2530 nM	0.986	> 16000 nM	0.986	> 10200 nM	0.483	280 nM
CAL-12T (non-small cell lung carcinoma, adherent)	0.751	1870 nM	0.967	> 1020 nM	0.692	1160 nM	0.645	847 nM	0.504	1030 nM	0.696	2440 nM	0.836	3900 nM
CAPAN-1 (pancreas, adherent)	0.81	3060 nM	0.986	> 1020 nM	0.837	3870 nM	0.537	409 nM	0.837	12400 nM	0.906	> 10200 nM	–	–
CFPAC-1 (pancreas, adherent)	0.943	> 5120 nM	0.984	> 1020 nM	0.844	4360 nM	0.591	590 nM	0.712	4370 nM	0.906	> 10200 nM	0.774	2250 nM
COLO-205 (large intestine, suspension)	0.65	826 nM	0.987	> 1020 nM	0.278	–	0.411	183 nM	0.462	790 nM	0.673	1930 nM	0.443	218 nM
COR-L23 (large cell lung carcinoma, adherent)	0.518	358 nM	0.987	> 1020 nM	0.815	2660 nM	0.64	770 nM	0.517	1110 nM	0.822	5800 nM	0.851	3660 nM
Caov-4 (ovary, adherent)	–	–	0.932	> 1020 nM	0.789	3430 nM	0.843	> 5120 nM	0.966	> 16000 nM	0.933	> 10200 nM	0.841	> 5000 nM
Capan-2 (pancreas, adherent)	0.941	> 5120 nM	0.93	> 1020 nM	0.8	3030 nM	0.677	1110 nM	0.777	7890 nM	0.985	> 10200 nM	0.653	915 nM
ChaGo-K-1 (non-small cell lung carcinoma, adherent)	0.809	3210 nM	0.976	> 1020 nM	0.954	> 5000 nM	0.711	1410 nM	0.782	7840 nM	0.931	> 10200 nM	0.981	> 5000 nM

Cell Line	AUC (CUDC-101)	IC50 (CUDC-101)	AUC (AC220)	IC50 (AC220)	AUC (RDEA119; screen: GDSC drug entry 1014)	IC50 (RDEA119; screen: GDSC drug entry 1014)	AUC (JNK-9L)	IC50 (JNK-9L)	AUC (OSU-03012)	IC50 (OSU-03012)	AUC (QS11)	IC50 (QS11)	AUC (RDEA119; screen: GDSC drug entry 1526)	IC50 (RDEA119; screen: GDSC drug entry 1526)
DEL (lymphoid neoplasm, suspension)	0.451	242 nM	0.994	> 1020 nM	0.993	> 5000 nM	0.515	348 nM	0.662	2540 nM	0.91	9050 nM	0.97	> 5000 nM
DU-145 (prostate, adherent)	0.542	422 nM	0.985	> 1020 nM	0.662	930 nM	0.494	307 nM	0.631	2400 nM	0.805	5870 nM	0.753	1850 nM
EKVX (lung adenocarcinoma, adherent)	0.779	> 5120 nM	0.968	> 1020 nM	0.751	3980 nM	0.797	> 5120 nM	0.857	> 16000 nM	0.857	> 10200 nM	0.742	3560 nM
EPLC-272H (lung squamous cell carcinoma, adherent)	0.396	160 nM	0.981	> 1020 nM	–	–	0.627	752 nM	0.774	7120 nM	0.93	> 10200 nM	0.739	1670 nM
H290 (mesothelioma, adherent)	–	–	0.954	> 1020 nM	0.711	1160 nM	0.471	269 nM	0.743	4600 nM	0.986	> 10200 nM	0.821	2590 nM
HCC70 (breast, adherent)	0.573	505 nM	0.984	> 1020 nM	–	–	0.501	322 nM	0.896	> 16000 nM	0.988	> 10200 nM	0.881	> 5000 nM
HCC1187 (breast, suspension)	0.723	1320 nM	0.98	> 1020 nM	0.944	> 5000 nM	0.629	712 nM	0.955	> 16000 nM	0.966	> 10200 nM	–	–
HCC1428 (breast, adherent)	0.527	381 nM	0.946	> 1020 nM	0.987	> 5000 nM	0.695	1200 nM	0.868	> 16000 nM	0.985	> 10200 nM	0.986	> 5000 nM
HCC1500 (breast, adherent)	0.583	545 nM	0.977	> 1020 nM	0.921	> 5000 nM	0.717	1350 nM	0.783	7020 nM	0.987	> 10200 nM	0.949	> 5000 nM
HCC1806 (breast, adherent)	0.544	418 nM	0.989	> 1020 nM	0.93	> 5000 nM	0.508	337 nM	0.735	4360 nM	0.915	> 10200 nM	0.951	> 5000 nM
HL-60 (acute myeloid leukaemia, suspension)	0.385	160 nM	–	–	0.301	92.1 nM	0.582	522 nM	0.646	2420 nM	0.913	> 10200 nM	0.803	2180 nM
HSC-39 (stomach, suspension)	–	–	0.975	> 1020 nM	0.921	> 5000 nM	0.744	1410 nM	0.974	> 16000 nM	0.991	> 10200 nM	0.911	> 5000 nM
HeLa (cervix, adherent)	–	–	0.983	> 1020 nM	0.966	> 5000 nM	0.549	432 nM	0.655	2630 nM	0.879	9650 nM	0.867	4170 nM
KARPAS-231 (B-cell leukaemia, suspension)	–	–	0.926	1000 nM	0.99	> 5000 nM	0.486	296 nM	0.467	831 nM	0.657	1560 nM	0.99	> 5000 nM
KG-1 (acute myeloid leukaemia, suspension)	0.491	303 nM	–	–	0.955	> 5000 nM	0.573	496 nM	0.824	8220 nM	0.962	> 10200 nM	0.83	2700 nM
MCF7 (breast, adherent)	0.911	> 5120 nM	–	–	0.977	> 5000 nM	0.497	315 nM	0.526	1180 nM	0.752	3520 nM	0.978	> 5000 nM
MOLT-4 (lymphoblastic leukaemia, suspension)	0.349	133 nM	–	–	0.968	> 5000 nM	0.627	668 nM	0.529	1180 nM	0.921	> 10200 nM	0.971	> 5000 nM
SW620 (large intestine, adherent)	–	–	0.99	> 1020 nM	0.561	448 nM	0.563	467 nM	0.561	1440 nM	0.776	3620 nM	0.62	639 nM
TE-441-T (rhabdomyosarcoma, adherent)	–	–	0.984	> 1020 nM	–	–	0.543	418 nM	0.879	15200 nM	0.951	> 10200 nM	–	–
U-2-OS (osteosarcoma, adherent)	–	–	0.98	> 1020 nM	–	–	0.815	3120 nM	0.875	> 16000 nM	0.984	> 10200 nM	0.76	1920 nM
